Test results published in the supplement of paper PMC8728848.
The other results are listed elsewhere or left out.

Tests used:
Assay in all cases: glycan array binding signal (z-score within array); higher = stronger binding
Conditions in all cases: glycan notation: IUPAC condensed, linker removed
Fuc(a1-2)Gal = molecular target: Fuc(a1-2)Gal
In short: (§1)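 Glycan array data were curated from 3228 arrays in the Consortium for Functional Glycomics database and kept only where the protein sequence was available. Glycan names were converted to IUPAC-condensed notation, and columns mapping to the same glycan were averaged. The binding signal is a within-array Z-score, averaged across arrays of the same protein sequence at different concentrations or buffers and across linkers. Negative Z-scores can be read as non-binding.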

Fuc(a1-2)Gal(b1-3)GalNAc = molecular target: Fuc(a1-2)Gal(b1-3)GalNAc
In short: as §1

[1] = molecular target: Fuc(a1-2)Gal(b1-3)GalNAc(a1-3)[Fuc(a1-2)]Gal(b1-4)Glc
In short: as §1

[2] = molecular target: Fuc(a1-2)Gal(b1-3)GalNAc(a1-3)[Fuc(a1-2)]Gal(b1-4)GlcNAc
In short: as §1

[3] = molecular target: Fuc(a1-2)Gal(b1-3)GalNAc(b1-3)Gal
In short: as §1

[4] = molecular target: Fuc(a1-2)Gal(b1-3)GalNAc(b1-3)Gal(a1-4)Gal(b1-4)Glc
In short: as §1

[5] = molecular target: Fuc(a1-2)Gal(b1-3)GalNAc(b1-4)[Neu5Ac(a2-3)]Gal(b1-4)Glc
In short: as §1

Fuc(a1-2)Gal(b1-3)GlcNAc = molecular target: Fuc(a1-2)Gal(b1-3)GlcNAc
In short: as §1

[6] = molecular target: Fuc(a1-2)Gal(b1-3)GlcNAc(b1-2)Man(a1-3)[Fuc(a1-2)Gal(b1-3)GlcNAc(b1-2)Man(a1-6)]Man(b1-4)GlcNAc(b1-4)GlcNAc
In short: as §1

[7] = molecular target: Fuc(a1-2)Gal(b1-3)GlcNAc(b1-3)Gal(b1-4)Glc
In short: as §1

[8] = molecular target: Fuc(a1-2)Gal(b1-3)GlcNAc(b1-3)[Fuc(a1-3)[Gal(b1-4)]GlcNAc(b1-6)]Gal(b1-4)Glc
In short: as §1

[9] = molecular target: Fuc(a1-2)Gal(b1-3)[Fuc(a1-4)]GlcNAc
In short: as §1

[10] = molecular target: Fuc(a1-2)Gal(b1-3)[Fuc(a1-4)]GlcNAc(b1-2)Man(a1-3)[Fuc(a1-2)Gal(b1-3)[Fuc(a1-4)]GlcNAc(b1-2)Man(a1-6)]Man(b1-4)GlcNAc(b1-4)GlcNAc
In short: as §1

[11] = molecular target: Fuc(a1-2)Gal(b1-3)[Fuc(a1-4)]GlcNAc(b1-3)[Fuc(a1-3)[Gal(b1-4)]GlcNAc(b1-6)]Gal(b1-4)Glc
In short: as §1

[12] = molecular target: Fuc(a1-2)Gal(b1-3)[Fuc(a1-4)]GlcNAc(b1-3)[Gal(b1-4)GlcNAc(b1-6)]Gal(b1-4)Glc
In short: as §1

Fuc(a1-2)Gal(b1-4)Glc = molecular target: Fuc(a1-2)Gal(b1-4)Glc
In short: as §1

Fuc(a1-2)Gal(b1-4)Glc6S = molecular target: Fuc(a1-2)Gal(b1-4)Glc6S
In short: as §1

Fuc(a1-2)Gal(b1-4)GlcNAc = molecular target: Fuc(a1-2)Gal(b1-4)GlcNAc
In short: as §1

[13] = molecular target: Fuc(a1-2)Gal(b1-4)GlcNAc(b1-2)Man(a1-3)[Fuc(a1-2)Gal(b1-4)GlcNAc(b1-2)Man(a1-6)]Man(b1-4)GlcNAc(b1-4)GlcNAc
In short: as §1

[14] = molecular target: Fuc(a1-2)Gal(b1-4)GlcNAc(b1-3)Gal(b1-4)GlcNAc
In short: as §1

[15] = molecular target: Fuc(a1-2)Gal(b1-4)GlcNAc(b1-3)Gal(b1-4)GlcNAc(b1-3)Gal(b1-4)GlcNAc
In short: as §1

[16] = molecular target: Fuc(a1-2)Gal(b1-4)GlcNAc(b1-3)GalNAc
In short: as §1

[17] = molecular target: Fuc(a1-2)Gal(b1-4)GlcNAc6S
In short: as §1

[18] = molecular target: Fuc(a1-2)Gal(b1-4)[Fuc(a1-3)]GlcNAc
In short: as §1

[19] = molecular target: Fuc(a1-2)Gal(b1-4)[Fuc(a1-3)]GlcNAc(b1-2)Man(a1-3)[Fuc(a1-2)Gal(b1-4)[Fuc(a1-3)]GlcNAc(b1-2)Man(a1-6)]Man(b1-4)GlcNAc(b1-4)GlcNAc
In short: as §1

[20] = molecular target: Fuc(a1-2)Gal(b1-4)[Fuc(a1-3)]GlcNAc(b1-3)Gal(b1-4)[Fuc(a1-3)]GlcNAc
In short: as §1

[21] = molecular target: Fuc(a1-2)Gal(b1-4)[Fuc(a1-3)]GlcNAc(b1-3)Gal(b1-4)[Fuc(a1-3)]GlcNAc(b1-3)Gal(b1-4)[Fuc(a1-3)]GlcNAc
In short: as §1

Fuc(a1-2)Gal6S(b1-4)Glc = molecular target: Fuc(a1-2)Gal6S(b1-4)Glc
In short: as §1

[22] = molecular target: Fuc(a1-2)Gal6S(b1-4)Glc6S
In short: as §1

[23] = molecular target: Fuc(a1-2)Gal6S(b1-4)GlcNAc
In short: as §1

B1: Gal 1 (Canis lupus) (protein)
chain: MACGLVASNLSLKPGQCLRVQCEVVPEAKSFVLNLGKDGDNLCLHFNPRFEAHGDVNTIVCNSKDGGAWGEELRESAFPFQPGTVTEVCISFDQADLTIKLPDGYTFKFPNRLNLEAISYLAADGDMKIKCLAFD
Fuc(a1-2)Gal
  glycan array binding signal (z-score): -0.336
Fuc(a1-2)Gal(b1-3)GalNAc
  glycan array binding signal (z-score): -0.289
[1]
  glycan array binding signal (z-score): -0.341
[2]
  glycan array binding signal (z-score): -0.334
[3]
  glycan array binding signal (z-score): -0.33
[4]
  glycan array binding signal (z-score): -0.321
[5]
  glycan array binding signal (z-score): -0.331
Fuc(a1-2)Gal(b1-3)GlcNAc
  glycan array binding signal (z-score): -0.117
[6]
  glycan array binding signal (z-score): -0.104
[7]
  glycan array binding signal (z-score): 0.211
[8]
  glycan array binding signal (z-score): 0.066
[9]
  glycan array binding signal (z-score): -0.306
[10]
  glycan array binding signal (z-score): -0.319
[11]
  glycan array binding signal (z-score): -0.095
[12]
  glycan array binding signal (z-score): 0.48
Fuc(a1-2)Gal(b1-4)Glc
  glycan array binding signal (z-score): -0.338
Fuc(a1-2)Gal(b1-4)Glc6S
  glycan array binding signal (z-score): -0.119
Fuc(a1-2)Gal(b1-4)GlcNAc
  glycan array binding signal (z-score): -0.18
[13]
  glycan array binding signal (z-score): 0.929
[14]
  glycan array binding signal (z-score): 0.136
[15]
  glycan array binding signal (z-score): 0.432
[16]
  glycan array binding signal (z-score): -0.311
[17]
  glycan array binding signal (z-score): -0.067
[18]
  glycan array binding signal (z-score): -0.307
[19]
  glycan array binding signal (z-score): -0.316
[20]
  glycan array binding signal (z-score): -0.335
[21]
  glycan array binding signal (z-score): -0.325
Fuc(a1-2)Gal6S(b1-4)Glc
  glycan array binding signal (z-score): -0.234
[22]
  glycan array binding signal (z-score): -0.312
[23]
  glycan array binding signal (z-score): -0.254
